Data published in US11123329B1, “Use of angiotensin II type 2 receptor agonist” (Vicore Pharma AB, priority 2020, dated 2021).

Test system: E-cadherin expression
Assay: BioMAP fibrosis panel, human small airway epithelial cell plus lung fibroblast (SAEMyoF) assay, ELISA-based biomarker detection
Settings: 10 μM of C21
Description: The effect of C21 on E-cadherin expression was studied using the human disease model BioMAP® platform (fibrosis panel) with ELISA-based protein biomarker detection in a human small airway epithelial cell plus lung fibroblast (SAEMyoF) assay (a service provided by Eurofins DiscoverX Corporation, Fremont, Calif., USA).
The relative expression level of E-cadherin (expressed as Log ratio C21/Vehicle control) was −0.0476 with 10 μM of C21.

CCCCOC(=O)NS(=O)(=O)c1sc(CC(C)C)cc1-c1ccc(Cn2ccnc2)cc1 [Compound C21, N-butyloxycarbonyl-3-(4-imidazol-1-ylmethylphenyl)-5-isobutylthiophene-2-sulfonamide]
relative expression level of E-cadherin (expressed as Log ratio C21/Vehicle control): −0.0476
